For the test, the target named is Recombinant heterodimeric HCV NS3/NS4A protease (strain 1a) (Hepatitis C virus genotype 1a, UniProt P27958). Description: biochemical. The settings on record: HCV protease continuous assay, Table 1; read-out: Ki* Range.

SMILES strings stand for the structures. Starred links: 1 amine or outer side, 2 acyl side, 3 side chain; linkers in the order of their positions; H or OH if unused. Non-standard residues stand in square brackets, D forms with d. Residues, ends and D or L forms follow the SMILES beside them. ξ: configuration not given here. *: point of attachment. ξ(3-Amino-2-oxohex-5-enoyl) = C=CCC(N[*:1])C(=O)C(=O)[*:2]; X11 = CC(C)(C)c1cc(C(=O)O)cc(C(=O)*)c1; Isobutyloxycarbonyl = CC(C)COC(=O)*; X2 = O=C(C(=O)[*:2])C(CC1CC1)N[*:1]; Ala(cPr) = N[CH](CC1CC1)C(=O)O; Benzoyl(4-F) = O=C(c1ccc(F)cc1)*; X4 = CCCC(N[*:1])C(=O)C(=O)[*:2]; AllylGly = C=CC[CH](N)C(=O)O; Chg = N[CH](C(=O)O)C1CCCCC1; Pen = CC(C)(S)[C@H](N)C(=O)O; Phg = N[CH](C(=O)O)c1ccccc1; ξChg = NC(C(=O)O)C1CCCCC1; ξPhg = NC(C(=O)O)c1ccccc1; Bn = c1ccc(C*)cc1; OtBu = CC(C)(C)O*; X32 = CCOC(=O)C*

Consider `CCCC(NC(=O)[C@H](CC(C)C)NC(=O)[C@@](C)(NC(=O)CC(C)(C)C)C1CCCCC1)C(=O)C(=O)NCC(=O)N[C@H](C(=O)O)c1ccccc1` (stereo partly drawn) [Example 83], for which the Ki was over 1 µM. Regarding `CCCC(NC(=O)[C@H](CC(C)C)NC(=O)[C@@](C)(NC(=O)c1ccc(S(N)(=O)=O)cc1)C1CCCCC1)C(=O)C(=O)NCC(=O)N[C@H](C(=O)O)c1ccccc1` (stereo partly drawn) [Example 85], the Ki was over 1 µM.

Consider `CCCC(NC(=O)[C@H](CC(C)C)NC(=O)[C@@](C)(NC(=O)c1c(F)c(F)c(F)c(F)c1C(=O)O)C1CCCCC1)C(=O)C(=O)NCC(=O)N[C@H](C(=O)O)c1ccccc1` (stereo partly drawn) [Example 86], for which the Ki was over 1 µM.

With `CCCC(NC(=O)[C@H](CC(C)C)NC(=O)[C@@H](NC(=O)OCC(C)C)C(C)(C)SC)C(=O)C(=O)NCC(=O)N[C@H](C(=O)O)c1ccccc1` (stereo partly drawn) [Example 87] (Isobutyloxycarbonyl-[Pen](Me)L[X4]G[Phg]-OH), the Ki lay in the range of 0.101 to 1 µM.

On to `CCCC(NC(=O)[C@H](CC(C)C)NC(=O)[C@@H](NC(=O)OCC(C)C)C(C)(C)S)C(=O)C(=O)NCC(=O)N[C@H](C(=O)O)c1ccccc1` (stereo partly drawn) [Example 88] (Isobutyloxycarbonyl-[Pen]L[X4]G[Phg]-OH), for which the Ki lay within 0.101 to 1 µM.

In the case of `CCCC(NC(=O)[C@H](CC(C)C)NC(=O)[C@@H](NC(=O)OCC(C)C)C(C)(C)SCc1ccccc1)C(=O)C(=O)NCC(=O)N[C@H](C(=O)O)c1ccccc1` (stereo partly drawn) [Example 90] (Isobutyloxycarbonyl-[Pen](Bn)L[X4]G[Phg]-OH), the Ki was in the range of 0.101 to 1 µM. The value for `CCCC(NC(=O)[C@H](CC(C)C)NC(=O)[C@@H](NC(=O)OCC(C)C)C(C)(C)SCC(=O)OCC)C(=O)C(=O)NCC(=O)N[C@H](C(=O)O)c1ccccc1` (stereo partly drawn) [Example 91] (Isobutyloxycarbonyl-[Pen](X32)L[X4]G[Phg]-OH) was 0.101 to 1 µM. On to `CCCC(NC(=O)[C@H](CC1CO1)NC(=O)C(NC(=O)OCC(C)C)C1CCCCC1)C(=O)C(=O)NCC(=O)NC(C(=O)OC(C)(C)C)c1ccccc1` (stereo partly drawn) [Example 92], for which the Ki was over 1 µM. The value for `CCCC(NC(=O)[C@H](C[C@@H](O)CO)NC(=O)C(NC(=O)OCC(C)C)C1CCCCC1)C(=O)C(=O)NCC(=O)NC(C(=O)O)c1ccccc1` (stereo partly drawn) [Example 93] was over 1 µM; that for `CC(C)COC(=O)NC(C(=O)N[C@@H](CC1CC1)C(=O)NC(CC1CC1)C(=O)C(=O)NCC(=O)NC(C(=O)OC(C)(C)C)c1ccccc1)C1CCCCC1` (stereo partly drawn) [Example 94] (Isobutyloxycarbonyl-[ξChg][Ala(cPr)][X2]G[ξPhg]-OtBu) was 0.101 to 1 µM. The value for `C=CCC(NC(=O)C(NC(=O)OCC(C)C)C1CCCCC1)C(=O)NC(CC=C)C(=O)C(=O)NCC(=O)NC(C(=O)OC(C)(C)C)c1ccccc1` (stereo not drawn) [Example 95] (Isobutyloxycarbonyl-[Chg][AllylGly][ξ(3-Amino-2-oxohex-5-enoyl)]G[Phg]-OtBu; configuration not given here) was 0.101 to 1 µM; that for `CC(C)COC(=O)NC(C(=O)NC(CC1CC1)C(=O)NC(CC1CC1)C(=O)C(=O)NCC(=O)NC(C(=O)O)c1ccccc1)C1CCCCC1` (stereo not drawn) [Example 96] (Isobutyloxycarbonyl-[Chg][Ala(cPr)][X2]G[Phg]-OH; configuration not given here) was under 0.1 µM. Regarding `C=CCC(NC(=O)C(NC(=O)OCC(C)C)C1CCCCC1)C(=O)NC(CC=C)C(=O)C(=O)NCC(=O)NC(C(=O)O)c1ccccc1` (stereo not drawn) [Example 97] (Isobutyloxycarbonyl-[Chg][AllylGly][ξ(3-Amino-2-oxohex-5-enoyl)]G[Phg]-OH; configuration not given here), the Ki is under 0.1 µM. Then `CCCC(NC(=O)[C@H](CC(C)C)NC(=O)C(NC(=O)c1cc(C(=O)O)cc(C(C)(C)C)c1)C1CCCCC1)C(=O)C(=O)NCC(=O)N[C@H](C(=O)O)c1ccccc1` (stereo partly drawn) [Example 98] (X11-[ξChg]L[X4]G[Phg]-OH), with under 0.1 µM; and `CCCC(NC(=O)[C@H](CC(C)C)NC(=O)[C@@H](NC(=O)c1ccc(F)cc1)C1CCCCC1)C(=O)C(=O)NCC(=O)N[C@H](C(=O)O)c1ccccc1` (stereo partly drawn) [Example 100] ({Benzoyl(4-F)}-[Chg]L[X4]G[Phg]-OH), with 0.101 to 1 µM.

(Values after US7595299B2, “Peptides as NS3-serine protease inhibitors of hepatitis C virus” (priority 2000, dated 2009).)
